Reference: the supplement of paper PMC8674133
Recombinant human monoclonal antibodies (heavy:light variable regions). ELISA EC50 on the named antigen, from 10 µg/ml down; IC50 / IC90 against spike pseudovirus on 293T-ACE2 cells, 48 h; lower = stronger. Calls: IC50 above 1,000 ng/ml = non-neutralizing; EC50 above 2,000 ng/ml = non-binder. The source prints 1000 for neutralization that was not reached; it is given as >1000 ng/ml. A few antibodies were first reported in earlier work of the same group.

B1: C2178 (protein)
chain 1: EVQLVESGGGLIQPGGSLRLSCAASGFTVSRNYMTWVRQAPGKGLEWVSVIYSGGSTYYADSVKGRFTISRDNSKNTLYLQMNSLRAEDTALYYCARDLGPSGGIDYWGQGTLVTVSS
chain 2: QSVLTQPPSASGTPGQRVTISCSGSSSNIGSDYVYWYQQLPGTAPKLLIYRNNQRPSGVPDRFSGSKSGTSASLAISGLRSEDEADYYCAAWDDSLWVFGGGTKLTVL
B2: C2212 (protein)
chain 1: EVQLVESGGGLVQPGGSLRLSCAASGFIVSSNYMSWVRQAPGKGLEWVSLIYSGGSTYYADSVQGRFTISRDNSKNTLYLQMNSLRAEDTAVYYCARGPYPRGFDYWGQGALVTVSS
chain 2: IRMTQSPSSLSASVGDRVTITCQASQDIRKYLNWYQQKPGKAPKLLIYDASNLETGVPSRFSGSGSGTDFTFTISSLQPEDIATYYCQQYDNVPLTFGGGTKVEIK
B3: C2173 (protein)
chain 1: EVQLVESGGGLIQPGGSLRLSCAASGFTVSSNYMSWVRQAPGKGLEWVSVIYSGGSTYYADSVKGRFTISRDNSKNTLYLQMNSLRAEDTAVYYCARDIVGAIRGMDVWGQGTTVTVSS
chain 2: IRMTQSPSSLSASVGDRVTITCQASQDISNYLNWYQQKPGKAPKLLIYDASNLETGVPSRFSGSGSGTDFTFTISSLQPEDIATYYCQQYDNLPRTFGGGTKVEIK
B4: C2118 (protein)
chain 1: VQLVESGGGVVQPGRSLRLSCAASGFTFSSYGMHWVRQAPGKGLEWVAVISYDGSNKYYADSVKGRFTISRDNSKNTLYLQMNSLRAEDTAVYYCAKGGPFGYSFPLKYFDYWGQGTLVTVSS
chain 2: IRMTQSPSSLSASVGDRVTITCQASQDISNYLNWYQQKPGKAPKLLIYDASNLETGVPSRFSGSGSGTDFTFTISSLQPEDIATYYCQQYDNLPSFTFGPGTKVDIK
B5: C2169 (protein)
chain 1: QVQLVQSGAEVKKPGASVKVSCKASGYTFTSYYMHWVRQAPGQGLEWMGIINPSGGSTSYAQKFQGRVTMTRDTSTSTVYMELSSLRSEDTAVYYCARDNDILTGYYLGHPHGMDVWGQGTTVTVSS
chain 2: SYELTQPPSVSVSPGQTARITCSGDALPKQYAYWYQQKPGQAPVLVIYKDSERPSGIPERFSGSSSGTTVTLTISGVQAEDEADYYCQSADSSVVFGGGTKLTVL
B6: C2119 (protein)
chain 1: EVQLVESGGGLIQPGGSLRLSCVASGLTVSSNYMSWVRQAPGKGLEWVSVIYSGGSTYYADSVKGRFTISRDNSKNTLYFQMNSLRAEDTAVYYCARDLLAYGMDVWGQGTTVTVSS
chain 2: QSVLTQPPSASGTPGQRVTISCSGSSSNIGSNYVYWYQQLPGTAPKLLIYRNNQRPSGVPDRFSGSKSGTSASLAISGVRSEDEADYYCAAWDDSLSGPLWVFGGGTKLTVL
B7: C2117 (protein)
chain 1: EVQLVESGGGVVQPGGSLRLSCAASGFTFDDYAIHWVRQAPGKGLEWVSLISGDGGSTYYADSVKGRFTISRDNSKNSLYLQMNSLRTEDTALYYCAKPGDDFWSGYFKGGVDYWGQGTLVTVSS
chain 2: QSVLTQPPSASGTPGQRVTISCSGSSSNIGSNYVYWYQQLPGTAPKLLIYRNNQRPSGVPDRFSGSKSGTSASLAISGLRSEDEADYYCAAWDDSLSAWVFGGGTKLTVL
B8: C2218 (protein)
chain 1: QLQLQESGPGLVKPSETLSLTCTVSGASISSATYYWGWIRQPPGKGLEWIGNIFYSGTTYYNPSLKSRVTMSVDTSKNQFSLKLSSVTAADTALYYCARHVRYMIDNAFDIWGQGTMVTVSS
chain 2: QAVVTQPASVSGSPGQSITISCTGTSSDVGSYNLVSWYQQHPGKAPKLMIYEGSKRPSGVSNRFSGSKSGNTASLTISGLQAEDEADYYCCSYAGSSTYVFGTGTKVTVL
B9: C2168 (protein)
chain 1: EVQLVQSGAEVKKPGESLKISCKGSGYSFTRYWIGWVRQMPGKGLEWMGIIDPGDSETRYSPSFQGQVTISADKSISTAYLQWSSLKASDTAMYYCARQYCGGDCPFDYWGQGTLVTVSS
chain 2: DIQMTQSPSTLSASVGDRVTITCRASQSISTWLAWYQQKPGKAPKLLIYDASSLESGVPSRFSGSGSGTEFTVTISSLQPDDFATYYCQQYKSYSRTFGQGTKVEIK
B10: C2188 (protein)
chain 1: EVQLVESGGGLIQPGGSLRLSCAASGITVSSNYMSWVRQAPGKGLEWVSVMYAGGSTFYADSVKGRFTISRDDSKNTLFLQMNSLRAEDTAIYYCARDLYSSGGTDIWGQGTMVTVSS
chain 2: QSVLTQPPSVSGAPGQRVTISCTGSSSNIGAGYDVHWYQQLPGTAPKLLIYGNSNRPSGVPDRFSGSKSGTSASLAITGLQAEDEADYYCQSYDSSLSGSVFGGGTKLTVL
B11: C2170 (protein)
chain 1: QVQLVQSGAEVKKPGSSVKVSCKASGGTFSSYAISWVRQAPGQGLEWMGGIIPIFGTANYAQKFQGRVTITADESTSTAYMELSSLRSEDTAVYYCASCRYYYDSSGYAQPEDYFDYWGQGTLVTVSS
chain 2: QSVLTQPPSVSGAPGQRVTISCTGSSSNIGAGYDVHWYQQLPGTAPKLLIYGNSNRPSGVPDRFSGSKSGTSASLAITGLQAEDEADYYCQSYDSSLSGSHVVFGGGTKLTVL
B12: C2175 (protein)
chain 1: QVQLVQSGAEVKKPGASVKVSCKASGYTFTSYYMHWVRQAPGQGLEWMGIINPSGGSTSYAQKFQGRVTMTRDTSTSTVYMELSSLRSEDTAVYYCARVEPPITQEMATILPYFDYWGQGTLVTVSS
chain 2: QSVLTQPPSVSGAPGQRVTISCTGSSSNIGAGYDVHWYQQLPGTAPKLLIYGNSNRPSGVPDRFSGSKSGTSASLAITGLQAEDEADYYCQSYDSSLSDNWVFGGGTKLTVL
B13: C2172 (protein)
chain 1: EVQLVESGGGLVKPGGSLRLSCAASGFTFSSYNMNWVRQAPGKGLEWVSSISSSSSYISYADSVKGRFTISRDNAKNSLYLQMNSLRAEDTAVYYCAREGSTSCYPSFICDWFDPWGQGTLVTVSS
chain 2: EIVMTQSPATLSVSPGERATLSCRASQSVSSNLAWYQQKPGQAPRLLIYGASTRATGIPARFSGSGSGTEFTLTISSLQSEDFAVYYCQQYNNWPTFTFGPGTKVDIK
B14: C2176 (protein)
chain 1: EVQLVESGGGLVQPGGSLRLSCAASGFTFSNYDMHWVRQASGKGLEWVSVIGTAGDTYYPGSVKGRFTISRENAKNSLYLQMNSLRAGDTAVYYCARANYFDSSGYGYYYYGMDVWGQGTTVTVSS
chain 2: EIVMTQSPATLSVSPGERATLSCRASQSVSRNLAWYQQKPGQAPRLLIYGASTRATGIPARFSGSGSGTEFTLTISSLQSEDFAVYYCQQYYNWPPLTFGGGTKVEIK
B15: C2167 (protein)
chain 1: QLQLQESGPGLGKPSETLSLTCTVSGGSISSSSYYWGWIRQPPGKGLEWIGSIYYIGNTYYNPSLKSRVTISVDTSKNQFSLKLSSVTAADTAVYYCARHETDYGGVAGHFQHWGQGTLVTVSS
chain 2: QSALTQPASVSGSPGQSITISCTGTSSDVGSYNLVSWYQQHPGKAPKLMIYEGSKRPSGVSNRFSGSKSGNTASLTISGLQAEDEADYYCCSYAGTYVVFGGGTKLTVL
B16: C2174 (protein)
chain 1: QVQLQESGPGLVKPSETLSLTCTVSGGSISSYYWSWIRQPPGKGLEWIAYIYYSGGTNYNPSLKSRVTISVDTSKNQFSLKLSSVTAADTAVYYCARDLPHYDFWSGSSLDAFDIWGPGTMVTVSS
chain 2: QSALTQPASVSGSPGQSITISCTGTSSDVGGYNYVSWYQQHPGKAPKLMIYDVSNRPSGVSNRFSGSKSGNTASLTISGLQAEDEADYYCSSYTSSSTRVFGTGTKVTVL

target: SARS-CoV-2 Wuhan-Hu-1 spike pseudovirus; assay: pseudovirus neutralization IC50; higher = weaker neutralization
Protocol: (§1)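 Single-round luciferase reporter pseudovirus mixed with antibody dilutions and put on 293T-ACE2 cells for 48 h; signal relative to no-antibody wells, four-parameter fit.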

Row | Binder | pseudovirus neutralization IC50 [µg/mL]
1 | B1 | 0.0148
2 | B2 | 0.012
3 | B3 | 0.0959
4 | B4 | > 1
5 | B5 | > 1
6 | B6 | 0.0844
7 | B7 | > 1
8 | B8 | > 1
9 | B9 | > 1
10 | B10 | 0.153
11 | B11 | 0.095
12 | B12 | 0.0269
13 | B13 | 0.454
14 | B14 | > 1
15 | B15 | 0.0798
16 | B16 | 0.534

target: SARS-CoV-2 Wuhan-Hu-1 spike pseudovirus; assay: pseudovirus neutralization IC90; higher = weaker neutralization
Protocol: as §1

Row | Binder | pseudovirus neutralization IC90 [µg/mL]
17 | B1 | 0.0685
18 | B2 | 0.0904
19 | B3 | 0.523
20 | B4 | > 1
21 | B5 | > 1
22 | B6 | 0.28
23 | B7 | > 1
24 | B8 | > 1
25 | B9 | > 1
26 | B10 | > 1
27 | B11 | 0.59
28 | B12 | 0.314
29 | B13 | > 1
30 | B14 | > 1
31 | B15 | 0.769
32 | B16 | > 1

target: SARS-CoV-2 Wuhan-Hu-1 spike receptor-binding domain; assay: ELISA binding EC50; higher = weaker binding; ELISA of recombinant human antibody on coated antigen, from 10 µg/ml in fourfold dilutions; four-parameter fit.

Row | Binder | ELISA binding EC50 [µg/mL]
33 | B1 | 0.0039
34 | B2 | 0.00168
35 | B3 | 0.00158
36 | B4 | 0.0396
37 | B5 | 0.00367
38 | B6 | 0.00221
39 | B7 | 0.00246
40 | B8 | > 10
41 | B9 | 0.0023
42 | B10 | 0.00149
43 | B11 | 0.00188
44 | B12 | 0.00267
45 | B13 | 0.00207
46 | B14 | 0.00307
47 | B15 | 0.00212
48 | B16 | 0.0029
